The text below walks through data of PubChem BioAssay AID1346428 (National Center for Advancing Translational Sciences (NCATS), 2018).

Several values for one entry are separate records, joined by “and”; a condition that tells them apart may be missing. Equal entries are not always repeated. The campaign covered roughly 48,000 compounds. About 1,200 (2.5%) were called active. Not shown: some 2% with an inconclusive outcome.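 Rule for the calls: active = activation of at least 60% and not above a set upper limit (about 1 call in 100 departs from these limits); inconclusive = activation of 40% to 60%, or above that upper limit; inactive = activation under 40%.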 This is one part of the list.

Sequence of UniProt O75388 (O75388 whole entry, looked up): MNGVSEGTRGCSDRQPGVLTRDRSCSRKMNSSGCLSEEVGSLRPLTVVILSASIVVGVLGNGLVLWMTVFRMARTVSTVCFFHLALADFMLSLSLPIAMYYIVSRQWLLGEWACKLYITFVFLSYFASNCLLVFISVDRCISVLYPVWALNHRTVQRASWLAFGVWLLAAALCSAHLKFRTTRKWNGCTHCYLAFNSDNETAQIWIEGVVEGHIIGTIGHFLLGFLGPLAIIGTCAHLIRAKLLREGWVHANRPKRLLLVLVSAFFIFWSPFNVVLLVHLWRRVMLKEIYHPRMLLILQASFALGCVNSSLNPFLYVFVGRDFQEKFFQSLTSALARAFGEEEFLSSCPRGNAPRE

The experiment has as its target Probable G-protein coupled receptor 32 (Homo sapiens) (UniProt O75388). Put plainly: qHTS for Agonists of Human Resolvin D1 Receptor DRV1. Note: 0% is about no effect. The conditions noted are these: CHO-K1 GPR32 beta-arrestin PathHunter luminescence, 90 min; at 76.9 µM; stronger effect = higher value; zero percent set by DMSO-only wells. The method, boiled down:
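PathHunter beta-arrestin recruitment in CHO-K1 cells stably expressing ProLink-tagged GPR32. Cells were exposed to compound for 90 min at 37 C, then chemiluminescence was read after 1 h detection at ambient temperature; DMSO served as basal control.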
A general note: In qHTS, concentration-response curves come from the screen itself.
Regarding `Nc1ccn(C2CO[C@H](CO)O2)c(=O)n1` (stereo not given in full), the activation was inactive: 4.95%.
For `COc1cc(C2CC(=O)Nc3cc4c(cc32)OCCO4)cc(OC)c1O` (stereo not given), the activation is inactive: 40.8%.
In the case of `CCCCN(CCCC)c1nc(-c2ccccc2)nc2ccccc12` it was active: 110%; in that of `COc1ccc(C(Cl)=C(c2ccc(OC)cc2)c2ccc(OC)cc2)cc1`, inactive: -22%; in that of `O=c1[nH]c2cc(C(F)(F)F)c(N3CCOCC3)cc2n(CP(=O)(O)O)c1=O`, inactive: -13.2%.
The result for `CCCCC(=O)Nc1ccc(OCc2cc(=O)n3ccc(C)cc3n2)cc1` reads inactive: -3.71%; that for `Cc1oncc1C(=O)Nc1ccc(C(F)(F)F)cc1`, inactive: 14% and inactive: -5.48%.
In the case of `COc1ccccc1C(=O)Nc1c(C(=O)Nc2ccc(C)cc2)oc2ccccc12` it was inactive: -2.75%; in that of `CC1(c2ccccc2)CC(C)(C)N(C(=O)c2ccccc2Cl)c2ccccc21` (stereo not given), inactive: -0.994%; in that of `CCN(C(=O)c1cc2c(Cl)nc3ccc(C)cc3c2s1)c1cc(OC)ccc1OC`, inactive: -9.44%.
Turning to `CCC(=O)Nc1ccc(C)cc1-c1nc2ccccc2n(Cc2ccccc2)c1=O`, the activation was inactive: -5.06%.
In the case of `Cc1oc(-c2cccc(Cl)c2)nc1CSCC(=O)O` it was inactive: -17%; in that of `NC(C(=O)N[C@@H]1C(=O)N2C(C(=O)O)=C(Cl)CS[C@H]12)c1ccccc1` (stereo not given in full), inactive: -7.31%.
Regarding `CCOC(=O)c1c(N)sc2c1CCN(Cc1ccccc1)C2`, the activation was inactive: 13.3%.
The result for `COc1ccc(NC(=O)C2CCCN2S(=O)(=O)c2ccc3c(c2)CCCC(=O)N3)cc1Cl` (stereo not given) reads inactive: -5.72%.
In the case of `COc1ccc(C(=O)Nc2ccc(-c3cc(C(F)(F)F)nn3-c3ccccc3)cc2)cc1OC` it was inactive: -6.9%; in that of `COc1ccc(-c2nn(-c3ccc(F)cc3F)c3c2cnc2ccc(F)cc23)cc1`, inactive: -8.15%.
The result for `CC(=O)N1CCCc2cc(S(=O)(=O)NCc3ccc(OC(C)C)cc3)ccc21` reads inactive: 9.46%; that for `CCOc1ccc(-c2nonc2NC(=O)c2oc3cc(Br)ccc3c2C)cc1`, inactive: -11%.
Consider `N#Cc1ccccc1NC(=O)C(=O)NCC(c1cccnc1)N1CCN(c2ccccc2)CC1` (stereo not given), for which the activation is inactive: -3.3%.
As for `Cc1cccc(C(=O)Nc2cccc(C(=O)OCc3cc(=O)n4nc(C5CC5)sc4n3)c2)c1`, the activation is inactive: -12.4%.
In the case of `CCN1CCN(C(=O)c2ccc3c(c2)N(Cc2cc(C)ccc2C)C(=O)c2ccccc2S3(=O)=O)CC1` it was inactive: -23.5%; in that of `Cc1ccc(OCC(=O)Nc2ccc(-c3nc4ccc(C)cc4o3)cc2)cc1`, inactive: 0.206%.
As for `CCOc1ccc(C(=O)Nc2ccc3nc(SCC(=O)N4CCOCC4)sc3c2)cc1`, the activation was inactive: 4.47%.
The result for `CCCSCCCNC(=O)CN1C(=O)COc2ccc(S(=O)(=O)N3CCCCCC3)cc21` reads inactive: -14%; that for `O=C(NCCc1ccccc1)c1cnc2sc(N3CCOCC3)nn2c1=O`, inactive: 1.02%; that for `CCOC(=O)c1c(C)oc2nc(C)nc(NCCc3ccc(S(N)(=O)=O)cc3)c12`, inactive: 8.52%.
On to `CCOc1ccccc1Nc1ccc2cc(S(=O)(=O)N3CCCCC3)ccc2n1`, for which the activation was inactive: -26.6%.
As to `COc1ccc(CCC(=O)NCc2ccc3c(c2)CCN3C(=O)c2cccc(C)c2)cc1`, the activation was inactive: 11.4%.
In the case of `CCCOc1ccc(CNC(=O)C2CCN(c3nn4c(=O)cc(C)nc4s3)CC2)cc1` it was inactive: -47.3%.
In the case of `O=C(Nc1ccc(F)cc1F)C1CCCN1S(=O)(=O)c1cccc2nsnc12` (stereo not given) it was inactive: -4.68%; in that of `Cc1cc(NC(=O)CN(c2cccc(C)c2C)S(=O)(=O)c2ccccc2)ccc1Br`, inactive: -1.67%.
The result for `CCOc1ccc(C(=O)c2cn(CC(=O)Nc3ccc(C)c(C)c3)c3ccc(OCC)cc3c2=O)cc1` reads inactive: 10.7%; that for `CCOC(=O)[C@H](CCc1ccccc1)N[C@@H](C)C(=O)N1Cc2ccccc2C[C@H]1C(=O)O`, inactive: -67.6%.
For the compound `CCOC(=O)CSc1ncnc2c1c(-c1ccccc1)cn2-c1ccc(OC)cc1`, the activation is inactive: 3.59%.
In the case of `CCS(=O)(=O)c1nc(S(=O)(=O)c2ccc(C)cc2)c(NCc2ccccc2Cl)s1`, the activation is inactive: -25.5%.
Turning to `COc1ccccc1NC(=O)C1CCN(c2ncnc3c2nc2n3CCCCC2)CC1`, the activation is inactive: -2.74%.
In the case of `COc1cc2c(cc1OC)C(COc1ccc(C(C)C)cc1)N(C(=O)COc1ccccc1)CC2` (stereo not given) it was inactive: -15.6%; in that of `COc1ccc(N2CC(NC(=O)c3ccc(S(=O)(=O)N4CCOCC4)cc3)CC2=O)cc1` (stereo not given), inactive: -2.62%; in that of `COc1ccc(OCC(=O)N2CCN(C(=O)c3ccc(OC)cc3)CC2)cc1`, inactive: 13%.
With `COc1ccc(NC(=O)CC2C(=O)N(c3ccc(C)cc3)C(=O)N2C2CCCC2)cc1` (stereo not given), the activation was inactive: -25.2%.
Regarding `CCOc1ccc(Nc2nc(Nc3ccc(OCC)cc3)nc(N3CCOCC3)n2)cc1`, the activation is inactive: -11.2%.
Take `COc1ccc(CCNC(=O)CCCn2c(=O)c3cccn3c3ccc(F)cc32)cc1OC`: the activation was inactive: -24.3%.
As to `CC(NC(=O)c1cc2ccccn2n1)c1ccccc1` (stereo not given), the activation was inactive: -1.81%.
In the case of `Cc1ccc(C)c(CN2C(=O)C(O)(c3c[nH]c4ccccc34)c3ccccc32)c1` (stereo not given) it was active: 84.3%; in that of `COC(=O)CN1C(=O)C(C)(C)c2cc(S(=O)(=O)Nc3ccc(C(C)C)cc3)ccc21`, inactive: 30%.
The result for `O=C(COc1ccc(Br)cc1)Nc1cccc2cccnc12` reads inactive: -23.4%; that for `Cc1cn2c(=O)cc(COC(=O)C(C)Oc3ccccc3)nc2s1` (stereo not given), inactive: 9.98%.
In the case of `COc1cccc(NC(=O)c2oc3ccccc3c2NC(=O)Cc2cccc(C)c2)c1` it was inactive: -23.6%.
`CC(CCc1ccccc1)NCC(O)c1ccc(O)c(C(N)=O)c1` (stereo not given): the activation was inactive: -17.3%.
Consider `COC(=O)c1ccc(Cl)cc1NC(=O)N1CCC(CN2CCC(C)CC2)CC1`, for which the activation was inactive: -1.03%.
As to `CCc1cccc(NC(=O)c2coc(=O)c3ccccc23)c1`, the activation is inactive: 8.45%.
The result for `O=C(NCc1ccc(Cl)cc1)c1cc(-c2ccc(F)cc2)on1` reads inactive: 1.74%; that for `CCc1ccc(-n2nc(CO)c(C(=O)NCCCCc3ccccc3)n2)cc1`, inactive: -5.8%; that for `Cc1ccccc1OCC(=O)N(Cc1ccc(C(C)C)cc1)C1CCS(=O)(=O)C1` (stereo not given), inactive: -37.3%.
